Where “and” joins values, the source holds several entries; their conditions need not be identical. Identical values can stand only once. Counter-ions that a name gives are not always drawn. ± gives the standard deviation of the averaged measurements. Whole data set: some 3,100 compounds, median “mean cytoplasmic OPP incorporation (global translation) relative to DMSO” near 100, cut for the lowest 2% near 56. Some of the results follow.
system: U2OS; experiment: mean cytoplasmic OPP incorporation (global translation) relative to DMSO (% of DMSO); higher = more protein synthesis; settings: 10 µM; 24 h
Protocol: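 Primary image-based screen in U2OS cells: compounds at 10 uM for 24 h, then a 1 h o-propargyl-puromycin (OPP) pulse, click labelling, and high-throughput microscopy. Mean cytoplasmic OPP intensity and nuclei count were normalised to DMSO wells within each plate (DMSO = 100) and averaged over triplicate plates.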

Compound	mean cytoplasmic OPP incorporation
C[C@@H]1O[C@@H](OC[C@H]2O[C@@H](Oc3c(-c4ccc(O)c(O)c4)oc4cc(O)cc(O)c4c3=O)[C@H](O)[C@@H](O)[C@@H]2O)[C@H](O)[C@H](O)[C@H]1O [Rutin (Rutoside)]	101
CCCC(=O)Nc1ccc(OCC(O)CNC(C)C)c(C(C)=O)c1 (configuration not stated) [Acebutolol hydrochloride]	107
COc1ccnc2[nH]cc(C(=O)C(=O)N3CCN(C(=O)c4ccccc4)C[C@H]3C)c12	107
CC(=O)O[C@]1(C(C)=O)CC[C@H]2[C@@H]3C=C(C)C4=CC(=O)CC[C@]4(C)[C@H]3CC[C@@]21C [Megestrol Acetate]	103
CC(=O)O[C@]1(C(C)=O)CC[C@H]2[C@@H]3C=C(C)C4=CC(=O)CC[C@]4(C)[C@H]3CC[C@@]21C [Megestrol acetate]	102
C=C1[C@H](CO)[C@@H](O)C[C@@H]1n1cnc2c(=O)[nH]c(N)nc21 [Entecavir hydrate]	101
Cc1cccc(C)c1NC(=O)CN1CCN(CCCC(c2ccc(F)cc2)c2ccc(F)cc2)CC1 [Lidoflazine]	113
Nc1nc(=O)[nH]cc1F [Flucytosine]	101
Clc1cc(Cl)c(OCC#CI)cc1Cl [Haloprogin]	104
CCN1CCN(c2ccc(Nc3cc(N(C)C(=O)Nc4c(Cl)c(OC)cc(OC)c4Cl)ncn3)cc2)CC1	102
Oc1cc(O)cc(/C=C/c2ccc(O)c(O)c2)c1 [Piceatannol]	96 ± 11
Cc1cc(Nc2cc(CN3CCOCC3)c3nc(C)c(Cc4ccc(Cl)cc4F)n3n2)n[nH]1	140
Nc1nnc(-c2cccc(Cl)c2Cl)c(N)n1 [Lamotrigine]	96.1
CC[C@@]1(O)C(=O)OCc2c1cc1n(c2=O)Cc2cc3c(CN(C)C)c(O)ccc3nc2-1 [Topotecan]	82.7
CCCCCS(=O)(=O)CCCCCCCCCCn1c(-c2ccc(O)cc2)c(C)c2cc(O)ccc21	104
O=C1c2ccccc2-c2nc3nonc3nc21	81.3
NC(C(=O)O)c1ccc(C(=O)O)c(C(=O)O)c1 (racemic)	91.4 and 107
COc1cc2ncnc(Nc3ccc(O)c(Br)c3)c2cc1OC	87 ± 6
O=C(O)c1ccc(O)c2ncccc12	99.4
O=C1c2ccccc2CCC1CNCCc1ccc(O)cc1 (configuration not stated) [HEAT hydrochloride]	80.9
CCCC(=O)Nc1cccc(NC(=O)c2ccccc2Br)c1	99.9
CO[C@H]1C[C@@H]2CC[C@@H](C)[C@@](O)(O2)C(=O)C(=O)N2CCCC[C@H]2C(=O)O[C@H]([C@H](C)C[C@@H]2CC[C@H](n3cnnn3)[C@H](OC)C2)CC(=O)[C@H](C)/C=C(\C)[C@@H](O)[C@@H](OC)C(=O)[C@H](C)C[C@H](C)/C=C/C=C/C=C/1C [Zotarolimus (ABT-578)]	96.7
O=C(c1ccc(Cl)cc1Cl)n1nnc2ccccc21	111
Cc1cccn2c(=O)c(-c3nnn[nH]3)cnc12 [Pemirolast potassium]	97.6
CC[C@H](C)C(=O)O[C@H]1C[C@H](O)C=C2C=C[C@H](C)[C@H](CC[C@@H](O)C[C@@H](O)CC(=O)O)[C@H]21 [Pravastatin sodium salt]	109
CC[C@H](C)C(=O)O[C@H]1C[C@H](O)C=C2C=C[C@H](C)[C@H](CC[C@@H](O)C[C@@H](O)CC(=O)O)[C@H]21 [Pravastatin]	99.9

Compound	mean cytoplasmic OPP incorporation
CC[C@H](C)C(=O)O[C@H]1C[C@H](O)C=C2C=C[C@H](C)[C@H](CC[C@@H](O)C[C@@H](O)CC(=O)O)[C@H]21 [Pravastatin sodium]	103
O=C1CC2(CCCC2)CC(=O)N1CCCCNCC1COc2ccccc2O1 (configuration not stated)	112
CCCc1c(OCCCOc2ccc(OCC(=O)O)cc2)ccc(C(C)=O)c1O	100
CC1(C)CC(=O)C(C2C3=C(CC(C)(C)CC3=O)Oc3ccccc32)C(=O)C1 (configuration not stated)	107
O=S(=O)(c1cccc2c(Cl)cccc12)N1CCCNCC1 [ML 9 hydrochloride]	103
CCOCCn1c(N2CCCN(C)CC2)nc2ccccc21 [Emedastine]	88.6
CN1CC(=O)N=C1NC(=O)Nc1cccc(Cl)c1 [Fenobam]	79.3
CC(C)(C)OC(=O)Nc1ccc(-c2cc(C(=O)NCCCCCCC(=O)NO)no2)cc1	94.1
Cc1nc(C)c(C)nc1C [Tetramethylpyrazine]	96.9
Nc1nc(Nc2ccccc2)nc2c1ncn2[C@@H]1O[C@H](CO)[C@@H](O)[C@H]1O	97.9
O=C(OCCN1CCCCC1)c1c[nH]c2ccccc12	97.2
Cc1cccc(C)c1NC(=O)C[N+](C)(C)C	98.4
CC(C)(C)NCC(O)COc1cccc2c1CC(O)C(O)C2 (configuration not stated) [Nadolol]	87.8
Cc1ccc(S(=O)(=O)/C=C/C#N)cc1	82.2
C[C@H](CCC(=O)NCCS(=O)(=O)O)[C@H]1CC[C@H]2[C@@H]3[C@H](O)C[C@@H]4C[C@H](O)CC[C@]4(C)[C@H]3C[C@H](O)[C@]12C [Taurocholic acid]	102
Nc1ccccc1NC(=O)c1ccc(CNc2nccc(-c3cccnc3)n2)cc1 [Mocetinostat (MGCD0103)]	35.5
Cn1sc(=O)n(Cc2ccccc2)c1=O	105
COc1cc2c(cc1Cc1cccc(Cl)c1F)c(=O)c(C(=O)O)cn2[C@H](CO)C(C)C [Elvitegravir (GS-9137)]	98.8
COc1ccc2cc3[n+](cc2c1OC)CCc1cc2c(cc1-3)OCO2 [Berberine HCl]	106
CCCC[C@@H](C=O)NC(=O)OC(C)(C)C	101
Nc1ncnc2c1ncn2[C@@H]1O[C@H](CO)C[C@H]1O [Cordycepin]	102
COc1cc(C2Oc3ccc(C4Oc5cc(O)cc(O)c5C(=O)C4O)cc3OC2CO)ccc1O (configuration not stated) [Silymarin (Silybin B)]	105
COc1ccc2c(c1)c(CC(=O)OCC(=O)O)c(C)n2C(=O)c1ccc(Cl)cc1 [Acemetacin]	94.1
O=C1C(O)=C(O)C(=O)C(O)=C1O [Tetrahydroxy-1,4-quinone monohydrate]	97.8
Cc1nccn1CC1CCc2c(c3ccccc3n2C)C1=O (configuration not stated) [Ondansetron Hydrochloride]	87.4
CC(=O)NC[C@H]1CN(c2ccc(N3CCOCC3)c(F)c2)C(=O)O1 [Linezolid]	106

Compound	mean cytoplasmic OPP incorporation
CCCc1nc(C(C)(C)O)c(C(=O)OCc2oc(=O)oc2C)n1Cc1ccc(-c2ccccc2-c2nnn[nH]2)cc1 [Olmesartan medoxomil (Benicar)]	102
Cn1c(=O)c2c(ncn2CC(O)CO)n(C)c1=O (configuration not stated) [Diprophylline]	95.3
NC(=O)c1cccnc1 [Nicotinamide]	101 ± 6.7
CCC(C)(CN(C)C)OC(=O)c1ccccc1 (configuration not stated) [Amyleine hydrochloride]	106
CC(=C(CCO)SSCC1CCCO1)N(C=O)Cc1cnc(C)nc1N (stereo in doubt) [Fursultiamine Hydrochloride]	105
C=C(NC(=O)C(=C)NC(=O)c1csc(C2=N[C@@H]3c4csc(n4)[C@H]4NC(=O)c5csc(n5)[C@H]([C@](C)(O)[C@@H](C)O)NC(=O)[C@H]5CSC(=N5)/C(=C/C)NC(=O)[C@H]([C@@H](C)O)NC(=O)c5csc(n5)[C@]3(CC2)NC(=O)[C@H](C)NC(=O)C(=C)NC(=O)[C@H](C)NC(=O)[C@H]([C@@H](C)CC)N[C@@H]2C=Cc3c([C@H](C)O)cc(nc3[C@H]2O)C(=O)O[C@@H]4C)n1)C(N)=O [Thiostrepton]	73.3
CNC1(C)C2CCC(C2)C1(C)C (configuration not stated) [Mecamylamine hydrochloride]	113
Cc1c(Cn2c(C)nc3c(C(=O)O)cc(N4CCOCC4)cc32)cccc1C(F)(F)F	101 ± 4
Nc1nc(Nc2ccc(S(N)(=O)=O)cc2)nn1C(=O)c1c(F)cccc1F	50.1
CC(C)c1onc(-c2c(Cl)cccc2Cl)c1COc1ccc(/C=C/c2cccc(C(=O)O)c2)c(Cl)c1	104 and 101
C[C@@]1(O)[C@H](O)[C@@H](CO)O[C@H]1n1cnc2c(NC3CCCC3)nc(Cl)nc21	92
C=CCN1CCCC1CNC(=O)c1cc2nn[nH]c2cc1OC (configuration not stated) [Alizapride HCl]	98.4
NC(=O)[C@@H](CCC(F)(F)F)N(Cc1ccc(-c2ncon2)cc1F)S(=O)(=O)c1ccc(Cl)cc1	107
COc1ccc(CNCc2cccc3ccccc23)cc1	97.7
Cc1[nH]c(/C=C2\C(=O)Nc3ccc(S(=O)(=O)Cc4c(Cl)cccc4Cl)cc32)c(C)c1C(=O)N1CCC[C@@H]1CN1CCCC1	102 and 94.5
N#CC(=C(/N)Sc1ccccc1N)/C(C#N)=C(\N)Sc1ccccc1N	95.8
CC1=C(C(=O)O)N2C(=O)[C@@H](NC(=O)[C@H](N)c3ccc(O)cc3)[C@H]2SC1 [Cefadroxil]	104
CC(C)(Oc1ccc(C2CC2(Cl)Cl)cc1)C(=O)O (configuration not stated) [Ciprofibrate]	83.7
CN(CCOc1ccc(-c2ccc3c(c2)OCO3)cc1C(C)(C)C)CC(=O)O	99
N[C@@H](CSS(=O)(=O)O)C(=O)O [S-Sulfo-L-cysteine sodium salt]	101
COc1cc2ncnc(Nc3ccc(Oc4ccccc4)cc3)c2cc1OC	93.5
CC1CCN(CCCC(=O)c2ccc(F)cc2)CC1 [Melperone hydrochloride]	98.7
Nc1ccc(S(N)(=O)=O)cc1 [Sulfanilamide]	105
CCN1CCC[C@H]1CNC(=O)c1cc(S(N)(=O)=O)ccc1OC [Levosulpiride (Levogastrol)]	106
CCN1CCC[C@H]1CNC(=O)c1cc(S(N)(=O)=O)ccc1OC [(S)-(-)-Sulpiride]	96.4
